# Data reported in publication PMC4336329 (PLoS ONE, 2015).
# Screen size: about 310,000 compounds; about 14,000 (4.5%) showed an effect of 50% or more. The effect is printed as a negative number. The list shows a part of the results.
# Target: human ether-à-go-go-related gene (hERG) potassium channel (human, UniProt Q12809)
# Test: primary screen, population patch clamp on CHO cells stably expressing hERG
# 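Note: peak tail current of the secondary pulse compared with the same well before compound.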
# Sequence of human ether-à-go-go-related gene (hERG) potassium channel (Q12809 whole entry, looked up): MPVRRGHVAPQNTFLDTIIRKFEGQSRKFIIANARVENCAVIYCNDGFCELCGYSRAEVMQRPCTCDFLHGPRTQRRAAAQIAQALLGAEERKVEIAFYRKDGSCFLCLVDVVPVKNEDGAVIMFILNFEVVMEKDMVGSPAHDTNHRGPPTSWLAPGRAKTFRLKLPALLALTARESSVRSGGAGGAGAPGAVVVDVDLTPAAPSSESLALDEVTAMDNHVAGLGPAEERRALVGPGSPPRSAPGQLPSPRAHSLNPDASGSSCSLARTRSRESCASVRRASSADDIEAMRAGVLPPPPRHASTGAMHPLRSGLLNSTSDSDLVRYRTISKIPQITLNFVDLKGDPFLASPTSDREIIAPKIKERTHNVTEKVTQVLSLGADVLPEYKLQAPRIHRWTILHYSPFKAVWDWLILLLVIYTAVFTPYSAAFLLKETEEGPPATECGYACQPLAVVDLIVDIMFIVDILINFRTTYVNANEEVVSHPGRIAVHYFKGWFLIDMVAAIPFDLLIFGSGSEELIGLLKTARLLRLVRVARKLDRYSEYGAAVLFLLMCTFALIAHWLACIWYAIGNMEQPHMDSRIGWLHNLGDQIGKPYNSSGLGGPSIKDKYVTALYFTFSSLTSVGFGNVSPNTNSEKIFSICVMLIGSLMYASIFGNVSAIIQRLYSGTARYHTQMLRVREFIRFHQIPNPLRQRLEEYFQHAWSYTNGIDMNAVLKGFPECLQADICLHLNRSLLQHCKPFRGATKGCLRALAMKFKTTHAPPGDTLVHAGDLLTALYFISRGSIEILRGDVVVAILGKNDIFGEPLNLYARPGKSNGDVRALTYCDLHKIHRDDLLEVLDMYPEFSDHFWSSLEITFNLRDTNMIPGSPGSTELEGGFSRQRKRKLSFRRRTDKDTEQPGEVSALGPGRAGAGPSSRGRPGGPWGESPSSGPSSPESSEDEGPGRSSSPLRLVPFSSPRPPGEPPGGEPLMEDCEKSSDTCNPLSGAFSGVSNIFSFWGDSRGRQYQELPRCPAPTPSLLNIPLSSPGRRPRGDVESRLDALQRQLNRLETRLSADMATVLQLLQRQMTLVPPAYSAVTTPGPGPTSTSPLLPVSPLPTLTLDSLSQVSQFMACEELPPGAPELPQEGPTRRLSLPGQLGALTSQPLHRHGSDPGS
row,SMILES,"hERG current change (%, negative = inhibition) at 10uM [%]"
1,Cc1nn(C)c(C)c1/C=C1/CC2C3CC=C4CC(O)CCC4(C)C3CCC2(C)C1=O (centres unmarked),-8.03
2,NC(=O)c1ccc(NC(=O)COC(=O)C2(c3ccccc3F)CCCC2)cc1,-23.3
3,Cc1cc(C)c2[nH]c(=O)c(CN(Cc3cccnc3)C(=S)NCCCN(C)C)cc2c1,-35.6
4,O=S(=O)(c1cccc(-c2nc3n(n2)Cc2ccccc2-3)c1)N1CCCC1,8.12
5,CSCC[C@H](NC(=O)N1CCn2c1nc1ccccc12)C(=O)NC1CCCCC1,-18.2
6,COc1ccc2nc(C(F)(F)Cl)c(C#N)c(N)c2c1,-0.991
7,Cc1cc(C)c(C#N)c(Nc2cccc(C)c2C)n1,15.9
8,COc1ccc(N2CCN(Cc3cc(OC)c(O)c([N+](=O)[O-])c3)CC2)cc1,-5.68
9,Cc1cc(C(=O)CSc2nnc(Nc3ccccc3)s2)c(C)n1CC1CCCO1 (centres unmarked),-18.2
10,CN1CCN(c2cc(=O)n(-c3ccc(Cl)cc3)c(=O)[nH]2)CC1,11.1
11,CS(=O)(=O)c1ccc2nc(NC(=O)c3cccc(NS(=O)(=O)c4ccc(F)c(F)c4)c3)sc2c1,-10.3
12,Cc1ccc(C(=O)/C=C/c2ccc(-c3ccccc3[N+](=O)[O-])o2)cc1,12.5
13,O=C(O)c1ccc(/C=N/O)cc1,-1.95
14,CCOc1ccc(C(=O)N2CCN(c3cnn(-c4ccccc4)c(=O)c3Cl)CC2)cc1,-77.8
15,O=C1C=C(c2ccccc2)C(=O)N1Nc1ccccc1,-77.2
16,CC(OC(=O)Cn1[nH]c(=O)c2ccccc2c1=O)C(=O)Nc1ccccc1[N+](=O)[O-] (centres unmarked),6.32
17,O=C(Cn1nnc2ccccc21)c1ccc([N+](=O)[O-])cc1,-32.9
18,COCCNC(=S)N(CCc1c(C)[nH]c2ccc(C)cc12)Cc1cccnc1,-7.49
19,C=CCOn1c(=O)c(C)[n+]([O-])c2ccccc21,5.15
20,CCN(C(=O)COC(=O)c1cccc(S(=O)(=O)N(CC)CC)c1)C1CCS(=O)(=O)C1 (centres unmarked),10.3
21,CCOC(=O)c1c(C)n(OC)c2ccc3c(no[n+]3[O-])c12,-1.2
22,Cc1ccc(C2(C)NC(=O)N(CC(=O)NCc3cccc(Cl)c3)C2=O)cc1 (centres unmarked),-7.12
23,O=C(Nc1ccccc1N1CCCC1)c1cccc(F)c1,6.24

row,SMILES,"hERG current change (%, negative = inhibition) at 10uM [%]"
1,O=C(Nc1ccc(Cl)cc1)C1CCN(C(=O)NC2CCCCC2)CC1,3.65
2,Cc1ccc(O)c(Nc2ncnc3ccc([N+](=O)[O-])cc23)c1.Cl,13.6
3,O=C(C1CCN(c2ccc(N3CCOCC3)nn2)CC1)N1CCc2ccccc2C1,-18.5
4,O=C(c1cc(F)c(F)cc1Cl)N1CCCCC1,-27.5
5,CC1=CC2=NC(=O)CC(C)(C(=O)N(CC(=O)NC(C)(C)C)Cc3ccccc3)N2C=C1 (centres unmarked),29.8
6,COc1cc(/C=C(\C#N)C(=O)N2CCc3ccccc32)ccc1O,-28.9
7,Nn1c(SCC(=O)Nc2ccccc2F)nnc1-c1cccnc1,28.5
8,CS(=O)(=O)N(CCc1ccccc1)CC(=O)N1CCN(c2ccccc2F)CC1,-3.17
9,CC(=Nc1ccc(C)c(C)c1)C1=C(O)CCC1=O,11.3
10,CCOc1ccc2nc(NCCNC(=O)C3CC3)c(C)cc2c1,-63.7
11,COc1cc(C(=O)Nc2ccc(S(=O)(=O)NC(C)C)cc2)cc(OC)c1OC,-2.49
12,Cc1ccc(/C=c2/sc3n(c2=O)CCCN=3)o1,-4.65
13,O=[N+]([O-])c1cccc(-c2nc(-c3cccs3)c(-c3cccs3)[nH]2)c1,5.61
14,Cc1cc(C)cc(SCc2noc(C(=O)NCC3CC3)c2C(=O)NCC2CC2)c1,-2.39
15,COc1ccc(S(=O)(=O)N(CC(=O)NCc2cccnc2)C2CCCCC2)cc1OC,-12.7
16,CN(Cc1ccc(Cl)cc1Cl)C(=O)CCNC(=O)c1ccco1,-18.2
17,CCCn1nnc(NC(=O)c2cc(Br)ccc2OC)n1,-10.4
18,Cc1cc(Cl)c(S(=O)(=O)NCC2CCCO2)cc1OCC(N)=O (centres unmarked),4.47
19,CSc1ccccc1NC(=O)CCn1c(=O)oc2ccccc21,14.5
20,CC1CCCCC1NC(=O)C1CCC(CNS(=O)(=O)c2cccc3cccnc23)CC1 (centres unmarked),28.8
21,Cc1ccc(NC(=S)N2CCCCCC2)cc1,11.7
22,CN(C)S(=O)(=O)c1ccc2c(c1)/C(=C/c1cc3c([nH]1)CCCC3)C(=O)N2,-4.62
23,CCOCCc1nnc(NC(=O)CCS(=O)(=O)c2ccccc2)s1,21.8

row,SMILES,"hERG current change (%, negative = inhibition) at 10uM [%]"
1,COCCN(C(=O)CNC(=O)c1ccco1)C(C(=O)NC1CCCCC1)c1cccs1 (centres unmarked),6.41
2,COc1ccccc1N1CCN(/N=C\c2ccc(C)o2)CC1,9.7
3,COc1cc2c(cc1OC)C(C(=O)NCc1ccco1)C(c1cccs1)N(C)C2=O (centres unmarked),-6.5
4,O=C1C2CCCN2C(c2cccnc2)N1c1ccc(Cl)c(Cl)c1 (centres unmarked),9.27
5,CCCCN(C(=O)c1cc2c(s1)CCC2)c1c(N)n(CC(C)C)c(=O)[nH]c1=O,2.41
6,CN1C(=O)SC(Nc2cccc3ccccc23)C1=O (centres unmarked),4.57
7,Cc1ccc(NC(=O)c2cc(NC(=O)CCC(=O)O)ccc2N2CCCCC2)cc1,4.21
8,Cc1cc(=O)[nH]c(SCc2cccc3ccccc23)n1,22
9,CCOC(=O)c1ccc(N/C(=N/S(=O)(=O)c2ccccc2)c2ccccc2)cc1,-36.2
10,CCOc1ccc(S(=O)(=O)N2CC(=O)Nc3ccccc32)cc1C#N,-23.3
11,CN(CC(=O)N1CCN(c2ncccn2)CC1)S(=O)(=O)c1ccc(Cl)cc1,-42.9
12,Cc1ccc(C(=O)c2ccc([N+](=O)[O-])cc2)cc1,2.86
13,CCC(C)NCCCOc1c(C)cc(C)cc1Br.O=C(O)C(=O)O (centres unmarked),-38.4
14,Cc1ccc(Nc2nc(CSc3nnnn3-c3ccccc3)cs2)cc1,14.7
15,COc1ccc(S(=O)(=O)Nc2ccc(S(=O)(=O)N3CCCCC3)cc2)cc1,-20.1
16,Cc1ccc(-c2nc(CS(=O)CC(=O)N3CCN(c4ncccn4)CC3)c(C)o2)cc1 (centres unmarked),-54.1
17,CCc1cccc(C)c1NC(=O)CCCSc1nc2ccccc2s1,-0.593
18,NNC(=O)c1cc2cc(Oc3ccccc3)ccc2[nH]1,16.4
19,Cc1cc(C)c(NC(=O)CSc2nc3ccc(N4C(=O)c5ccccc5C4=O)cc3s2)c(C)c1,32.3
20,O=c1[nH]c2c(c(=O)n1Cc1ccccc1)CCC2,2.43
21,CC(C)CCN1CCN(C2CCN(c3ccc4c(c3)OCO4)CC2)CC1CCO (centres unmarked),-17.6
22,CC(=O)c1cccc(NC(=O)Nc2csc3c2CCCC3)c1,6.2
23,Cc1cccc(Nc2nnc(SC3CCOC3=O)s2)c1C (centres unmarked),7.81

row,SMILES,"hERG current change (%, negative = inhibition) at 10uM [%]"
1,CC(=O)N1CCN(C(=S)Nc2ccc(SC(F)F)cc2)CC1,-14.1
2,CCOc1cc(NC(=S)NCCCN2CCOCC2)c(OCC)cc1NC(=O)C1CC1,-8.1
3,CCC(CC)NC(=O)COC(=O)c1cc(Br)ccc1Cl,-0.327
4,Oc1c(Cl)cc(Cl)cc1C=Nc1cc(C(F)(F)F)ccc1N1CCc2ccccc2C1,3.25
5,COC(=O)[C@@H]1C[C@@]2(O)[C@@H](O)[C@@H](O)[C@@H](O)C[C@H]2N1Cc1cc(OC)cc(OC)c1,15.9
6,COc1ccc(CNC(=O)CSc2nnc(-c3cccnc3)n2N)cc1,0.54
7,CCN(CC)CCN1C(=O)c2ccccc2NC1c1ccc(N(C)C)cc1 (centres unmarked),-46.6
8,CCOC(=O)c1ccc(COC(=O)CNS(=O)(=O)c2ccccc2)cc1,7.3
9,COc1ccc(S(=O)CC(=O)Nc2ccccc2Cl)cc1 (centres unmarked),18.9
10,CC(Cc1ccccc1)C(=O)N(C)Cc1cccnc1 (centres unmarked),11.3
11,Cc1ccc(N=C2C(=O)Nc3ccccc32)c(C)c1,12.2
12,COc1cccc(CC2(CO)CCCN(Cc3ccc(CN4CCCCC4)s3)C2)c1 (centres unmarked),-22.1
13,CCOc1ccc(NC(=O)CCn2nc(C)c(S(=O)(=O)N3CCCCC3)c2C)cc1,-17.9
14,COc1ccc(C)cc1NC(=O)C(OC(=O)Cn1cnc2c1c(=O)n(C)c(=O)n2C)c1ccccc1 (centres unmarked),-7.98
15,COC(=O)c1ccc(CSCc2ccc(C#N)cc2)cc1,-15.8
16,CCc1nnc(N/N=C/c2c(C)[nH]c3ccccc23)n1N.Cl,48.7
17,COC(=O)C1=C(O)/C(=C\c2sccc2C)N=C1C,14
18,Cc1cc(Br)cc2cn[nH]c12,26.3
19,CC(=O)N1N=C(c2ccccc2)CC1c1ccccc1 (centres unmarked),-11.7
20,COC(=O)c1ccccc1N(C)C(=O)C12CCC(C)(C(=O)O1)C2(C)C (centres unmarked),20.4
